The values that follow come from a collection of fitness landscapes (doi:10.1126/science.1257360).

This is one part of the list. Where only a bound is given, the exact number is not on record here.

The chains are these.
B1: PhoQ; a variant is named by its letters at X, in order, P23837 (parent)
chain: MKKLLRLFFPLSLRVRFLLATAAVVLVLSLAYGMVALIGYSVSFDKTTFRLLRGESNLFYTLAKWENNKLHVELPENIDKQSPTMTLIYDENGQLLWAQRDVPWLMKMIQPDWLKSNGFHEIEADVNDTSLLLSGDHSIQQQLQEVREDDDDAEMTHSVAVNVYPATSRMPKLTIVVVDTIPVELKSSYMVWSWFIYVLSANLLLVIPLLWVAAWWSLRPIEALAKEVRELEEHNRELLNPATTRELTSLVRNLNRLLKSERERYDKYRTTLTDLTHSLKTPLXXLQXXLRSLRSEKMSVSDAEPVMLEQISRISQQIGYYLHRASMRGGTLLSRELHPVAPLLDNLTSALNKVYQRKGVNISLDISPEISFVGEQNDFVEVMGNVLDNACKYCLEFVEISARQTDEHLYIVVEDDGPGIPLSKREVIFDRGQRVDTLRPGQGVGLAVAREITEQYEGKIVAGESMLGGARMEVIFGRQHSAPKDE

The assay covers variants of B1. Briefly: enrichment ratio after two sorts for PhoP signalling (ratio (wild type AVST 3.29)); higher = more functional. The note with it: with PhoP (E. coli).
For the variant WGPW, the enrichment ratio was not above 0.25.
As for YDCK, the figure is not above 0.25; as for RNGL, not above 0.25.
MFTQ: the enrichment ratio was not above 0.25.
Take MSLQ: the enrichment ratio turned out to be 10.
Take ARQS: the enrichment ratio is not above 0.25.
As for APWF, the figure is not above 0.25; as for FHES, not above 0.25; as for LFMH, not above 0.25.
As for ADCM, the figure is 10.2; as for YIGP, not above 0.25; as for AHCV, not above 0.25.
Regarding MLNG, the enrichment ratio was not above 0.25.
Under HFMR stands not above 0.25.
As for WIYS, the figure is not above 0.25; as for FDVN, not above 0.25; as for DLLD, not above 0.25.
As for FFTA, the figure is not above 0.25; as for GRFF, not above 0.25; as for NTAI, not above 0.25.
Take IDQV: the enrichment ratio is not above 0.25.
Take GHWK: the enrichment ratio was not above 0.25.
As for YGYT, the enrichment ratio was not above 0.25.
Turning to EVYQ, the enrichment ratio was not above 0.25.
Turning to HDKM, the enrichment ratio is not above 0.25.
In the case of ILTP, the enrichment ratio is not above 0.25.
With DFVG, the enrichment ratio is not above 0.25.
For the variant HGTS, the enrichment ratio is not above 0.25.
Under SGEY stands not above 0.25; under FQQE, not above 0.25; under GDPT, not above 0.25.
As to WYSW, the enrichment ratio is not above 0.25.
Under HDEP stands not above 0.25; under RIYI, not above 0.25; under MMLM, not above 0.25.
Under SDDD stands not above 0.25; under RFFP, not above 0.25.
With DMPN, the enrichment ratio was not above 0.25.
As for TLLE, the figure is not above 0.25; as for DISR, not above 0.25; as for AMTW, 6.78.
Consider YVGN, for which the enrichment ratio is not above 0.25.
Take RWIV: the enrichment ratio was not above 0.25.
Consider MQTN, for which the enrichment ratio is not above 0.25.
As for FSDD, the figure is not above 0.25; as for FINM, not above 0.25.
As for LVYR, the figure is not above 0.25.
As for EPIL, the figure is not above 0.25.
Consider MIMV, for which the enrichment ratio is not above 0.25.
Take AGFH: the enrichment ratio is not above 0.25.
As for RSPS, the enrichment ratio was not above 0.25.
Take VMPE: the enrichment ratio is not above 0.25.
As for YKQP, the figure is not above 0.25.
As for AMCR, the figure is 8.85; as for INMK, not above 0.25; as for PAPE, not above 0.25.
Regarding AFTR, the enrichment ratio is not above 0.25.
Turning to NCSG, the enrichment ratio was not above 0.25.
Under ESDC stands not above 0.25; under TDLL, 11.8; under SYVC, 0.486.
Under IWVA stands not above 0.25; under FWTR, not above 0.25.
As for NPAP, the figure is not above 0.25; as for IDPP, not above 0.25; as for PNDR, not above 0.25.
With GKYN, the enrichment ratio was not above 0.25.
As for NLVE, the enrichment ratio was not above 0.25.
For the variant RVLA, the enrichment ratio was not above 0.25.
As for WAQP, the figure is not above 0.25; as for ARDN, not above 0.25; as for GAEL, not above 0.25.
As for ADCK, the figure is not above 0.25.
On to WLSC, for which the enrichment ratio was not above 0.25.
On to TEPQ, for which the enrichment ratio was not above 0.25.
As for RHSG, the figure is not above 0.25; as for SHDP, not above 0.25.
On to ITGH, for which the enrichment ratio was not above 0.25.
As for AWTD, the figure is not above 0.25.
As for NPPQ, the figure is not above 0.25; as for QFNP, not above 0.25.
Under AISN stands 10; under PQIR, not above 0.25; under RVIA, not above 0.25.
On to ALWT, for which the enrichment ratio is not above 0.25.
IFCV: the enrichment ratio was not above 0.25.
As for LWPD, the figure is not above 0.25; as for YVKY, not above 0.25.
As for NHCD, the figure is not above 0.25.
Turning to ASYD, the enrichment ratio is not above 0.25.
Consider AFTD, for which the enrichment ratio is not above 0.25.
As for VWSP, the figure is not above 0.25; as for LDTP, not above 0.25; as for NYPL, not above 0.25.
Under SFHP stands not above 0.25.
Under PYFK stands not above 0.25.
Turning to QHDC, the enrichment ratio came out at 10.5.
As for HVWN, the figure is not above 0.25; as for EEQC, not above 0.25.
As for ATQF, the figure is not above 0.25.
In the case of SFAP, the enrichment ratio was not above 0.25.
Consider EFGM, for which the enrichment ratio turned out to be 0.76.
As for KIFG, the figure is not above 0.25; as for VFLF, not above 0.25.
As to ATAS, the enrichment ratio was 4.65.
As for RRMV, the figure is not above 0.25; as for RHMA, not above 0.25; as for MLHW, not above 0.25.
On to CPYP, for which the enrichment ratio is not above 0.25.
Under MGVQ stands not above 0.25.
In the case of NLIA, the enrichment ratio is not above 0.25.
As for HYEN, the figure is not above 0.25.
As for WFVE, the enrichment ratio is not above 0.25.
VLYP: the enrichment ratio was not above 0.25.
Under VLWG stands not above 0.25.
Under KGMI stands not above 0.25.
In the case of TKWV, the enrichment ratio stood at 4.41.
As for DAMA, the figure is not above 0.25; as for HLEH, not above 0.25.
Turning to ETGA, the enrichment ratio is not above 0.25.
For the variant SKGY, the enrichment ratio was not above 0.25.
For YMLE, the enrichment ratio was not above 0.25.
As for SSVC, the figure is 9.35.
For TQEH, the enrichment ratio was not above 0.25.
On to QFDV, for which the enrichment ratio is not above 0.25.
As for PQPG, the figure is not above 0.25.
As for LRFL, the enrichment ratio was not above 0.25.
As for SKAV, the figure is 4.49; as for QTND, not above 0.25; as for VGMY, not above 0.25.
QWIS: the enrichment ratio is not above 0.25.
Regarding LRSC, the enrichment ratio was not above 0.25.
With KYGA, the enrichment ratio is not above 0.25.
As for NYGG, the figure is not above 0.25.
Consider ARID, for which the enrichment ratio was not above 0.25.
Regarding LLMD, the enrichment ratio was not above 0.25.
For the variant TVQK, the enrichment ratio was determined as 15.5.
In the case of KYRP, the enrichment ratio is not above 0.25.
Regarding STMA, the enrichment ratio came out at 4.9.
Under YVPF stands not above 0.25; under ERVR, not above 0.25; under AGEP, not above 0.25.
As for LPSG, the figure is not above 0.25; as for LDGP, not above 0.25; as for MFEM, not above 0.25.
Under SYFT stands not above 0.25.
As for NTEA, the enrichment ratio was not above 0.25.
As for HGRH, the figure is not above 0.25; as for IPMT, not above 0.25.
Regarding WHRK, the enrichment ratio was not above 0.25.
Under WRHT stands not above 0.25; under PAGF, not above 0.25; under IPGF, not above 0.25.
As for NHFQ, the enrichment ratio was not above 0.25.
Under HWKC stands not above 0.25; under TNWL, not above 0.25; under WIKR, not above 0.25.
Under QQPG stands not above 0.25; under RMNS, not above 0.25; under TYFQ, not above 0.25.
Under EIRF stands not above 0.25; under PSMP, not above 0.25.
Consider RHYC, for which the enrichment ratio is not above 0.25.
As for GIGF, the figure is 10.9; as for LMRF, not above 0.25; as for DYIN, not above 0.25.
For TPKN, the enrichment ratio is not above 0.25.
Turning to YLNP, the enrichment ratio was not above 0.25.
Consider SQAI, for which the enrichment ratio turned out to be 15.1.
As for WGLE, the figure is not above 0.25; as for RCEN, not above 0.25; as for KYHI, not above 0.25.
Take LEMG: the enrichment ratio was 11.8.
MILH: the enrichment ratio was determined as 0.967.
Under FMFE stands not above 0.25; under RSTK, not above 0.25; under FIVF, not above 0.25.
As for PPAN, the figure is not above 0.25; as for IKEE, not above 0.25; as for VMKR, not above 0.25.
As for SEIY, the figure is 21.5.
Take TNPI: the enrichment ratio is not above 0.25.
For the variant VDGH, the enrichment ratio is not above 0.25.
Turning to MIRV, the enrichment ratio is not above 0.25.
For YSKN, the enrichment ratio was not above 0.25.
Take KHSC: the enrichment ratio is not above 0.25.
Consider TCGG, for which the enrichment ratio was found to be 21.5.
YITN: the enrichment ratio is not above 0.25.
Take HWDA: the enrichment ratio is not above 0.25.
For the variant YIHI, the enrichment ratio is not above 0.25.
Under TYIE stands not above 0.25.
As to MQIE, the enrichment ratio was not above 0.25.
With HPHE, the enrichment ratio is not above 0.25.
Consider VQIV, for which the enrichment ratio was 0.303.
For the variant QLKR, the enrichment ratio was not above 0.25.
